From PubChem BioAssay AID624417 (National Center for Advancing Translational Sciences (NCATS), 2012)
About 6,400 (1.6%) of roughly 410,000 compounds were called active. Inconclusive means that the source gave no clear call. Such entries were picked first, then a sample of the others. The call rests on the fitted dose curve; in most records, active means well fitted inhibition curve with a large enough effect; inconclusive means small, poorly fitted or top-dose-only effect; inactive means no such curve, though single readings can be large or run the other way. No potency is given beside an inconclusive call; the fits are too rough.

Target: Glucagon-like peptide 1 receptor (Homo sapiens) (UniProt P43220)
Sequence of UniProt P43220 (P43220 whole entry, looked up): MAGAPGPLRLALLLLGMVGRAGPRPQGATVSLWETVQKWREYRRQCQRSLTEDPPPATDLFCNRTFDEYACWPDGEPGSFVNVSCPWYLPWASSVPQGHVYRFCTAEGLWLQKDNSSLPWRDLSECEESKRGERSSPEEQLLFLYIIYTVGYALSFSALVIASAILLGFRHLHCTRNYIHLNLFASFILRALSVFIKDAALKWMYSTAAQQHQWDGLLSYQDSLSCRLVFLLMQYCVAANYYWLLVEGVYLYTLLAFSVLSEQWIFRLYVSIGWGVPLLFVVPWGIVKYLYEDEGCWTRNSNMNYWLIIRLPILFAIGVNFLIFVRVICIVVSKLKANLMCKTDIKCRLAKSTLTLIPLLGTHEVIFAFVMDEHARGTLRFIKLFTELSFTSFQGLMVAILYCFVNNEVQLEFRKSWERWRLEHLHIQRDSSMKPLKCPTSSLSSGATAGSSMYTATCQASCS
Assay: qHTS of GLP-1 Receptor Inverse Agonists (Inhibition Mode); further: nearly all actives have a fitted effect of over 55% in size
Details: HEK293 GLP-1R CRE-luciferase, luminescence, 24 h, GLP-1R form is constitutively active; activity change, negative = inhibition: at 38.3 µM (top of the series) unless noted
How it was run: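 Stable HEK293 clone (constitutively active GLP-1R + cAMP-response luciferase); 200 cells/uL plated, 12 h pre-culture, compound 24 hr, 37 deg C/5% CO2; detection reagent 12 min RT; luminescence.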
On the % scale 0 is the no-effect control and ±100 the full control effect; potency means the concentration at half of the fitted maximal effect; tags describe the fitted curve by direction and shape.

Q: With COC(=O)[C@]12CCCCC=C1N(Cc1cccc3ccccc13)C(=O)[C@H](CC(=O)NCc1ccc(C)o1)C2 as the molecule, how does the Potency read?
A: inconclusive [inhibitor, partial curve, poor fit]

Q: Which “activity change, negative = inhibition” value does the source give for Cc1ccc(OCC(=O)N/N=C\c2ccc(C)o2)c([N+](=O)[O-])c1 here?
A: inactive: 0.797%

Q: For CCOP(=O)(OCC)c1nc(Cc2ccccc2)oc1NCc1ccccc1, which Potency is on record?
A: inconclusive [inhibitor, partial curve, poor fit]

Q: For Cc1nc(C)c(C(=O)NCCC(c2ccccc2)c2ccccc2)o1, which Potency is on record?
A: inconclusive [inhibitor, partial curve, poor fit]

Q: How did the Potency turn out when Cc1cc(C)c(C(=O)NC2CC(C)(C)Cc3c2cnn3-c2ccccc2)o1 (stereo not given) was run?
A: active: 10 µM

Q: Which Potency does the source give for Cc1cc(NC(=O)CCCSc2nc(-c3ccco3)cc(C(F)(F)F)n2)n(-c2ccccc2)n1 here?
A: active: 8.91 µM

Q: Which Potency does the source give for CCN(c1ccccc1)S(=O)(=O)c1cc(NC(=O)Nc2ccccc2C#N)ccc1Cl here?
A: inconclusive [inhibitor, single point]

Q: CC1=C(C(=O)OCc2ccc(C)cc2)C(c2cccc(F)c2F)CC(=O)N1 (stereo not given) was tested. Which “activity change, negative = inhibition” value did it give?
A: inactive: -22.7%

Q: CC(C)(C)OC(=O)NCCc1nnc(SCc2ccc(Cl)cc2Cl)o1 was tested. Which Potency did it give?
A: inconclusive [inhibitor, single point]

Q: For O=C(Cc1ccccc1)NC(=S)Nc1cccc(C(F)(F)F)c1, which Potency is on record?
A: inconclusive [inhibitor, single point]

Q: For CC(C)C[C@@H](COCc1ccc([N+](=O)[O-])cc1)N1CCN(C(=O)c2ccc(C(F)(F)F)cc2)CCC1=O, which Potency is on record?
A: inconclusive [inhibitor, single point]

Q: CC(C)Oc1ccc(C(=O)CCN2CCCCC2)cc1 was tested. Which “activity change, negative = inhibition” value did it give?
A: inactive: 1.61%

Q: With O=C(/C=C/NNC(=O)c1cccc(Br)c1)c1ccccc1 as the molecule, how does the Potency read?
A: inconclusive [inhibitor, single point]

Q: With Cc1ccc2c(c1)c1c3n2CCN(C(=O)c2ccc(C(F)(F)F)cc2)C3CCC1 (stereo not given) as the molecule, how does the “activity change, negative = inhibition” value read?
A: inactive: 3.75%

Q: For COc1cc(/C=C(\C#N)C(=O)N2CCOCC2)ccc1OCc1ccccc1, which “activity change, negative = inhibition” value is on record?
A: inactive: -17.3%

Q: How did the Potency turn out when CCN(CC)S(=O)(=O)c1ccc(C)c(NC(=O)c2cc(C)oc2C)c1 was run?
A: inconclusive [inhibitor, single point]

Q: For CCOc1cc(/C=N/O)ccc1OCc1ccc([N+](=O)[O-])cc1, which “activity change, negative = inhibition” value is on record?
A: inactive: 9.8%

Q: CC(=O)OC1C2CCC1C([N+]1(C)CCCCC1)CC2 (stereo not given) was tested. Which “activity change, negative = inhibition” value did it give?
A: inactive: 12%

Q: Which Potency does the source give for COc1cccc(NS(=O)(=O)c2ccc(-n3cccn3)cc2)c1 here?
A: inconclusive [inhibitor, partial curve, poor fit]

Q: How did the Potency turn out when Cc1ccc(-c2cc(C(=O)Nc3ccccc3C)c3ccccc3n2)o1 was run?
A: inconclusive [inhibitor, single point]
